At least one read-out could not be matched to a standard name with certainty.
How the values were obtained:
Assay type in all cases: in vivo
[1] = test system: Empoasca abrupta, adult, western potato leafhopper; experiment: Western potato leafhopper contact test, dipped limabean leaf
Protocol: (§1) Test solutions are prepared by dissolving the test compound in a 35% acetone in water mixture to give a concentration of 10,000 ppm. Subsequent dilutions are made with water as needed.
Empoasca abrupta, adult, western potato leafhopper
A Sieva limabean leaf about 5 cm long is dipped in the test solution for 3 seconds with agitation and placed in a hood to dry. The treated leaf is placed in a 100 x 10 mm petri dish containing a moist filter paper and about 10 adult leafhoppers are added. After 2 days, mortality counts are made.
(§2) All of the above tests are rated according to the rating scale shown below.

[2] = test system: Heliothis virescens, 3rd instar tobacco budworm; experiment: Tobacco budworm 3rd instar test, dipped cotton cotyledons; conditions: mortality rating after 3 days
Protocol: as §1
Heliothis virescens, 3rd instar tobacco budworm
Cotton cotyledons are dipped in the test solution and allowed to dry in a hood. When dry, each is cut into quarters and ten sections are placed individually in 30 mL plastic medicine cups containing a 5-7mm long piece of damp dental wick. One 3rd instar caterpillar is added to each cup and the cup is sealed with MYLAR® film. Treatments are maintained for 3 days before a mortality count and observation of reduction in feeding damage are made.
as §2

[3] = test system: Tetranychus urticae (OP-resistant strain), 2-spotted spider mite; experiment: 2-spotted spider mite test, dipped infested limabean plants; conditions: for OP-RESISTANT MITES Egg: mite eggs; for OP-RESISTANT MITES Nymph: rating after 5 days
Protocol: as §1
Tetranychus urticae (OP-resistant strain), 2-spotted spider mite
Sieva limabean plants with primary leaves expanded to 7-8 cm are selected and cut back to one plant per pot. A small piece is cut from an infested leaf taken from the main colony and placed on each leaf of the test plants. This is done about 2 hours before treatment to allow the mites to move over to the test plant and to lay eggs. The size of the cut, infested leaf is varied to obtain about 100 mites per leaf. At the time of test treatment, the piece of leaf used to transfer the mites is removed and discarded. The newly mite-infested plants are dipped in the test solution for 3 seconds with agitation and set in the hood to dry. After 2 days one leaf is removed and mortality counts are made. After 5 days, another leaf is removed and observations are made of mortality of the eggs and/or newly emerged nymphs.
as §2

[4] = test system: Spodoptera eridania, 3rd instar larvae, southern armyworm; experiment: Southern armyworm 3rd instar test, dipped limabean leaf; conditions: for ARMYWORM Day 3: rating at 3 days; for ARMYWORM Day 5: rating at 5 days
Protocol: as §1
Spodoptera eridania, 3rd instar larvae, southern armyworm
A Sieva limabean leaf expanded to 7-8 cm in length is dipped in the test solution with agitation for 3 seconds and allowed to dry in a hood. The leaf is then placed in a 100 x 10 mm petri dish containing a damp filterpaper on the bottom and ten 3rd instar caterpillars. At 3 and 5 days, observations are made of mortality, reduced feeding, or any interference with normal molting.
as §2

[5] = 100 ppm, mortality rating after 2 days
[6] = 10 ppm, adult mites, rating scale 0-9
[7] = 100 ppm, adult mites, rating scale 0-9
[8] = 300 ppm, adult mites, rating scale 0-9

| SMILES | TOBACCO BUDWORM 3rd Instar ([2]; 10 ppm) | TOBACCO BUDWORM 3rd Instar ([2]; 100 ppm) | TOBACCO BUDWORM 3rd Instar ([2]; 1000 ppm) | ARMYWORM Day 3 ([4]; 100 ppm) | ARMYWORM Day 5 ([4]; 100 ppm) | ARMYWORM Day 3 ([4]; 1000 ppm) | ARMYWORM Day 5 ([4]; 1000 ppm) | other results |
| --- | --- | --- | --- | --- | --- | --- | --- | --- |
| CN(C)C(=S)SCn1c(-c2ccc(Cl)cc2)c(C#N)c(Cl)c1C(F)(F)F [Example 21] |  |  |  |  |  |  |  | LEAFHOPPER Contact ([1]; 10 ppm, mortality rating after 2 days): 5 (56-65% kill); LEAFHOPPER Contact [1, 5]: 9 (100% kill) |
| CSCn1c(-c2ccc(Cl)cc2)c(C#N)c(Br)c1C(F)(F)F [Example 25] | 8 (86-99% kill) | 9 (100% kill) | 9 (100% kill) |  |  |  |  |  |
| CCOC(=S)SCn1c(Cl)c(Cl)c(C#N)c1-c1ccc(Cl)c(Cl)c1 [Example 28] |  | 3 (36-45% kill) | 9 (100% kill) | 9 (100% kill) | 9 (100% kill) | 9 (100% kill) | 9 (100% kill) | OP-RESISTANT MITES Adult [3, 6]: 3 (36-45% kill); OP-RESISTANT MITES Adult [3, 7]: 9 (100% kill); OP-RESISTANT MITES Adult [3, 8]: 9 (100% kill); ARMYWORM Day 3 ([4]; 10 ppm): 6 (66-75% kill); ARMYWORM Day 5 ([4]; 10 ppm): 6 (66-75% kill) |
| CCOC(=S)SCn1c(-c2ccc(Cl)cc2)c(C#N)c(Br)c1C(F)(F)F [Example 29] | 4 (46-55% kill) | 9 (100% kill) | 9 (100% kill) |  |  |  |  |  |
| CC(C)OC(=S)SCn1c(-c2ccc(Cl)cc2)c(C#N)c(Br)c1C(F)(F)F [Example 30] | 4 (46-55% kill) | 9 (100% kill) | 9 (100% kill) |  |  |  |  | LEAFHOPPER Contact ([1]; 10 ppm, contact, rating scale 0-9): 8 (86-99% kill); LEAFHOPPER Contact ([1]; 100 ppm, contact, rating scale 0-9): 9 (100% kill) |
| CN(C)C(=S)SCn1c(Cl)c(Cl)c(C#N)c1-c1ccc(Cl)c(Cl)c1 [Example 32] |  |  |  | 3 (36-45% kill) | 3 (36-45% kill) | 9 (100% kill) | 9 (100% kill) |  |
| CN(C)C(=S)SCn1c(-c2ccc(Cl)c(Cl)c2)c(Br)c(C(F)(F)F)c1C(F)(F)F [Example 33] | 7 (76-85% kill) | 9 (100% kill) | 9 (100% kill) |  |  |  |  |  |
| CC(=O)SCn1c(Br)c(Br)c(C#N)c1Br [Example 34] |  |  |  | 9 (100% kill) | 9 (100% kill) | 9 (100% kill) | 9 (100% kill) | ARMYWORM Day 3 ([4]; 10 ppm): 5 (56-65% kill); ARMYWORM Day 5 ([4]; 10 ppm): 5 (56-65% kill) |
| CCOC(=S)SCn1c(-c2ccc(Cl)c(Cl)c2)c(Br)c(C(F)(F)F)c1C(F)(F)F [Example 35] | 8 (86-99% kill) | 9 (100% kill) | 9 (100% kill) |  |  |  |  | OP-RESISTANT MITES Adult [3, 6]: 8 (86-99% kill); OP-RESISTANT MITES Egg ([3]; 10 ppm, rating scale 0-9): 3 (36-45% kill); OP-RESISTANT MITES Adult [3, 7]: 9 (100% kill); OP-RESISTANT MITES Egg ([3]; 100 ppm, rating scale 0-9): 9 (100% kill); OP-RESISTANT MITES Adult [3, 8]: 9 (100% kill) |
| CN(C)C(=S)SCn1c(Cl)c(C#N)c(Cl)c1-c1ccc(Cl)c(Cl)c1 [Example 36] |  |  |  | 9 (100% kill) | 9 (100% kill) | 9 (100% kill) | 9 (100% kill) | ARMYWORM Day 3 ([4]; 10 ppm): 8 (86-99% kill); ARMYWORM Day 5 ([4]; 10 ppm): 8 (86-99% kill) |
| CCOC(=S)SCn1c(Cl)c(C#N)c(Cl)c1-c1ccc(Cl)c(Cl)c1 [Example 37] |  |  |  |  |  |  |  | OP-RESISTANT MITES Egg ([3]; 10 ppm, rating scale 0-9): 2 (26-35% kill); OP-RESISTANT MITES Adult [3, 7]: 9 (100% kill); OP-RESISTANT MITES Egg ([3]; 100 ppm, rating scale 0-9): 9 (100% kill); OP-RESISTANT MITES Adult [3, 8]: 7 (76-85% kill) |
| CSCn1c(Br)c(Br)c(C#N)c1-c1ccc(C(F)(F)F)cc1 [Example 44] |  |  |  |  |  |  |  | OP-RESISTANT MITES Nymph ([3]; 10 ppm): 5 (56-65% kill); OP-RESISTANT MITES Adult [3, 5]: 7 (76-85% kill); OP-RESISTANT MITES Adult ([3]; 300 ppm, mortality rating after 2 days): 9 (100% kill); OP-RESISTANT MITES Nymph ([3]; 300 ppm): 8 (86-99% kill) |
| N#Cc1c(Br)c(C(F)(F)F)n(CS(=O)(=O)c2ccccc2)c1-c1ccc(Cl)cc1 [Example 46] |  | 4 (46-55% kill) | 9 (100% kill) |  |  |  |  |  |

— EP0545103A1, “Insecticidal, acaricidal and molluscicidal 1-(substituted) thioalkylpyrroles” (priority 1991, dated 1993)
